Results as given in PubChem BioAssay AID1345082 (National Center for Advancing Translational Sciences (NCATS), 2018).
Hit rate of the full screen: of about 94,000 compounds, about 4,000 (4.3%) were called active. The shares of active, inactive and inconclusive entries below differ from those in the screen. The call rests on the fitted dose curve; in most records, active means well fitted inhibition curve with a large enough effect; inconclusive means small, poorly fitted or top-dose-only effect; inactive means no such curve, though single readings can be large or run the other way. Potencies beside an inconclusive call are fits to weak or partial responses and may not hold up.

Experiment: Cytotoxic Profiling in NIH 3T3 Cell Line of Diverse Libraries Using Quantitative High-Throughput Screening; further: nearly all actives have a fitted effect of over 55% in size
Settings: NIH 3T3 viability, CellTiter-Glo ATP luminescence, 48-72 h; series mostly up to 96.7 µM
Outline: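 Mouse fibroblast NIH 3T3 cells, 400 per well, received compound via pintool and were incubated for 48 or 72 hr prior to CellTiter-Glo ATP luminescence measurement.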
Potency means the concentration at half of the fitted maximal effect; tags describe the fitted curve by direction and shape.

SMILES | Potency
OC1(c2csc(CN3CCc4ccccc4C3)n2)CCN(Cc2ccccc2F)CC1 | inconclusive: 50.1 µM [inhibitor, partial curve, poor fit]
O=C(N[C@H]1CCN2C(=O)c3cc(-c4ccc5c(c4)OCO5)ccc3NC(=O)[C@H]12)c1cccc(F)c1 | active: 79.4 µM
COc1ccc(-c2cc(C(=O)NC3CC3)c3c(C4CCCNC4)noc3n2)cc1 (stereo unspecified) | active: 31.6 µM
COc1ccccc1C(=O)NC1CCN(c2ccc3nnc(-c4ccccc4)n3n2)C1 (stereo unspecified) | inconclusive: 50.1 µM [inhibitor, partial curve, poor fit]
CN(c1ccccc1)c1cc(=O)c2ccnc(NCc3cnccn3)c2o1 | inconclusive: 22.4 µM [inhibitor, full curve, poor fit]
COCCOc1cc(-c2noc([C@@H]3CCCN3Cc3ccncc3)n2)ccn1 | inactive
CSCC(=O)N[C@H]1CCN2C(=O)c3cc(-c4ccc(F)cc4F)ccc3NC(=O)[C@H]12 | inconclusive: 112 µM [inhibitor, partial curve]
CCOCCNC(=O)CNC(=O)c1ccc(-c2cccc(C(F)(F)F)c2)cc1 | inconclusive: 50.1 µM [inhibitor, partial curve, poor fit]
COc1ccc(Nc2ccnc(N3CCCC(C(=O)NCc4ccccc4Cl)C3)n2)cc1 (stereo unspecified) | active: 35.5 µM
CN(C)c1ccc(C(=O)NCC2CCN(c3cc(-c4ccccc4)[nH]n3)CC2)cc1 | inconclusive: 44.7 µM [inhibitor, partial curve, poor fit]
COc1ccc(CN2Cc3[nH]cnc3C[C@H]2C(=O)NC2CCCCC2)c2ccccc12 | active: 63.1 µM
Cc1cccc(OCCc2noc(C3CCCN(Cc4ccccn4)C3)n2)c1 (stereo unspecified) | inconclusive: 44.7 µM [inhibitor, partial curve, poor fit]
CN(C)C[C@@H]1CN(S(C)(=O)=O)C[C@H]1NC(=O)c1ccc(Cl)cc1 | inactive
O=C(NCc1ccccc1)C1CCc2nnc(-c3cccc(C(F)(F)F)c3)n21 (stereo unspecified) | inactive
CC(C)(C)C(=O)NC[C@H]1O[C@H](Cc2cc(-c3ccc(F)cc3)on2)CC[C@@H]1O | inactive
O=C1Cc2c(-c3ccccc3OCc3ccccc3)n[nH]c2CN1CCOc1ccccc1 | inconclusive: 20 µM [inhibitor, full curve]
CCNC(=O)c1cccnc1OC1CCN(C(=O)c2sccc2C)C1 (stereo unspecified) | inactive
COc1ccc(CN2C(=O)COC[C@H]2C(=O)NCc2cc(F)ccc2F)c(OC)c1 | inactive
COCCN(C)C(=O)c1cn(C2CN(C(=O)Nc3ccccc3F)C2)nn1 | inactive
COc1ccc(CNC(=O)c2ccc3c(c2)N(C(=O)c2ccc(F)cc2)CC3)cc1OC | inconclusive: 17.8 µM [inhibitor, partial curve]
O=C1Nc2ccccc2C(=O)N2CC[C@H](NS(=O)(=O)c3cccs3)[C@@H]12 | inactive

SMILES | Potency
O=C(c1ccc(C(F)(F)F)cc1)N1CCCC2(C1)C(=NC1CCCC1)NC(=O)N2c1cc(F)cc(F)c1 (stereo unspecified) | inactive
C=CCOc1c(OC)ccc2c1CN(Cc1ccco1)C(=O)CCN2CC(O)COCc1ccco1 (stereo unspecified) | inconclusive: 70.8 µM [inhibitor, single point]
Fc1ccc(CN2CC[C@H](c3nnc(-c4ccc(Cl)cc4)o3)C2)cc1 | inconclusive: 89.1 µM [inhibitor, partial curve]
COCCO[C@H]1C(=O)N(C2CCN(C(=O)c3cc4ccccc4[nH]3)CC2)[C@H]1c1ccncc1 | inconclusive: 39.8 µM [inhibitor, partial curve, poor fit]
CCc1nc2c(c(-c3ccc(Cl)cc3)n1)CN(C(=O)c1cccc(Cl)c1)CC2 | inconclusive: 44.7 µM [inhibitor, partial curve, poor fit]
COc1ccc(CN2C=C(C(=O)OCc3noc(-c4ccco4)n3)C(C)=NS2(=O)=O)cc1 | inconclusive: 22.4 µM [inhibitor, full curve]
O=C(c1cc2n(n1)CC(c1ccc(Cl)cc1)OC2)N1CCN(c2ccccc2)CC1 (stereo unspecified) | inconclusive: 50.1 µM [inhibitor, partial curve, poor fit]
Cc1cnc(C(=O)N2CCCN(Cc3ccncc3)C(c3ccccc3)CC(=O)NCC2)cn1 (stereo unspecified) | inactive
COc1ccc(OC)c2nc(-c3cccc(C)c3)c(CN3CCCC(O)C3)cc12 (stereo unspecified) | inconclusive: 35.5 µM [inhibitor, partial curve]
Cc1cccc(CC(=O)N2CCCN(S(C)(=O)=O)c3ccccc32)c1 | active: 39.8 µM
Cc1ccccc1N(C)C1CN(Cc2ccc(C(F)(F)F)cc2)C1 | inconclusive: 79.4 µM [inhibitor, partial curve, poor fit]
COc1ccccc1C(=O)N1CCCn2nc(C)c(-c3ccccc3OCc3ccccc3)c21 | inconclusive: 44.7 µM [inhibitor, partial curve, poor fit]
CCn1ccnc1C1CCN(c2nc3ccccc3o2)CC1 | inactive
COC(=O)c1cccc(NC(=S)N[C@H]2CO[C@H]3[C@@H]2OC[C@H]3OC(=O)Nc2cccc(C(F)(F)F)c2)c1 | inconclusive: 39.8 µM [inhibitor, partial curve, poor fit]
COC(=O)NC1CCN(c2ccc3nnc(C)n3n2)CC1 | inactive
COc1cccc(CCC(=O)N2CCN(C(=O)c3nnn4c3COC(c3ccccc3)C4)CC2)c1 (stereo unspecified) | inconclusive: 50.1 µM [inhibitor, partial curve, poor fit]
COc1ccc(CNC(=O)C2(c3ccc(NS(C)(=O)=O)cc3)CCCCC2)cc1 | inconclusive: 50.1 µM [inhibitor, single point]
O=C(Nc1ccccc1)N1CCOC(CN(CC2CC2)C(=O)c2cccc(F)c2)C1 (stereo unspecified) | inconclusive: 44.7 µM [inhibitor, partial curve, poor fit]
COc1ccc(-c2nc(C3CC3)nc3c2CCN(Cc2ccsc2)CC3)cc1 | inconclusive: 56.2 µM [inhibitor, partial curve, poor fit]
CCS(=O)(=O)c1ccc2oc([C@H]3CCN(Cc4c[nH]c5ccccc45)C3)nc2c1 | inconclusive: 100 µM [inhibitor, partial curve]
